58 molecules from the supplement of paper PMC9446081 can be followed below.

Structures are written as SMILES. The campaign covered roughly 39,000 compounds. About 220 (0.56%) showed activity. The list shows a part of the results.
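Also: static incubation at 37 °C against the wild-type strain, values averaged over two biological replicates.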

The subject of this assay is Escherichia coli K-12 BW25113. The assay is described as follows: relative growth (OD600 normalised to plate interquartile mean) (fraction); higher = less growth inhibition, active = 0.2 or less. The note with it: 50 µM; LB; incubation time: overnight (16-24 h).
For `C[C@H](CO)N1C[C@H](C)[C@H](CN(C)C(=O)Nc2cccc(F)c2)OCCCC[C@H](C)Oc2ccc(NC(=O)C3CCCCC3)cc2C1=O`, the relative growth is inactive: 1. To `Cc1noc(C)c1NC(=O)Nc1ccc2c(c1)C(=O)N([C@H](C)CO)C[C@@H](C)[C@H](CN(C)Cc1ccc(Cl)c(Cl)c1)O2` belongs inactive: 1.

Regarding `CN1CCN(C(=O)C[C@H]2C[C@H]3c4cc(NS(=O)(=O)c5ccc(F)cc5)ccc4O[C@H]3[C@@H](CO)O2)CC1`, the relative growth is inactive: 0.939. Take `Cc1noc(C)c1NC(=O)N[C@@H]1C=C[C@H](CC(=O)N2CCN(C)CC2)O[C@@H]1CO`: the relative growth is inactive: 1.01.

As to `Cc1ccc(S(=O)(=O)N(C)C[C@@H]2Oc3ccc(NC(=O)NC(C)C)cc3CC(=O)N([C@@H](C)CO)C[C@@H]2C)cc1`, the relative growth was inactive: 1.03. As to `CCCCCCc1nc(-c2ccc(-c3ccc(Cl)c(Cl)c3)o2)cc2c1[Si](C(C)C)(C(C)C)OC2`, the relative growth was inactive: 1.07. For the molecule `C[C@H](CO)N1C[C@H](C)[C@@H](CN(C)C(=O)Nc2cccc3ccccc23)OCCCC[C@H](C)Oc2ccc(NS(=O)(=O)c3ccc(Cl)cc3)cc2C1=O`, the relative growth was inactive: 1.03. To `CC(C)NC(=O)N(C)C[C@H]1Oc2ccc(NS(=O)(=O)c3cn(C)cn3)cc2CC(=O)N([C@@H](C)CO)C[C@@H]1C` belongs inactive: 1.01.

Turning to `COc1ccc(S(=O)(=O)Nc2ccc3c(c2)C(=O)N([C@H](C)CO)C[C@H](C)[C@@H](CN(C)C(=O)Nc2ccc(F)cc2)OCCCC[C@@H](C)O3)cc1`, the relative growth is inactive: 1.05. To `C[C@@H]1CN([C@H](C)CO)C(=O)c2cc(NS(C)(=O)=O)ccc2O[C@@H]1CN(C)C(=O)Nc1ccc(F)cc1` belongs inactive: 1. The value for `Cc1cc(C)c2c(c1)[C@@H](N(Cc1cc(C(F)(F)F)cc(C(F)(F)F)c1)c1nnn(C)n1)CCCN2C[C@H]1CC[C@H](C(=O)O)CC1` was inactive: 0.913; that for `Cc1noc(C)c1S(=O)(=O)Nc1ccc2c(c1)C(=O)N([C@H](C)CO)C[C@@H](C)[C@H](CN(C)Cc1ccc(C(F)(F)F)cc1)OCCCC[C@@H](C)O2` was inactive: 0.988. On to `CN1CCN(C(=O)C[C@@H]2CC[C@@H]3[C@H](COC[C@H](O)CN3C(=O)C3CC3)O2)CC1`, for which the relative growth was inactive: 0.889. The value for `C[C@H]1CN([C@@H](C)CO)C(=O)Cc2cc(NS(=O)(=O)c3ccc(Cl)cc3)ccc2O[C@@H]1CN(C)Cc1ccc(C(=O)Nc2ccccc2N)cc1` was inactive: 0.994.

For `COc1ccc2c3c(n(c2c1)C)[C@@H](CO)N(C[C@]13CN(Cc2ccncc2)C1)C(=O)CN1CCOCC1`, the relative growth is inactive: 1.03. The value for `Cc1ccccc1S(=O)(=O)N(C)C[C@@H]1Oc2ccc(NC(=O)Nc3cc(Cl)cc(Cl)c3)cc2CC(=O)N([C@@H](C)CO)C[C@@H]1C` was inactive: 0.972; that for `C[C@H](CO)N1C[C@H](C)[C@H](CN(C)Cc2ccc(Oc3ccccc3)cc2)Oc2c(NS(=O)(=O)c3ccc(F)cc3)cccc2C1=O` was inactive: 1.02.

`C[C@@H]1CCCCO[C@@H](CN(C)CC2CCCCC2)[C@@H](C)CN([C@H](C)CO)C(=O)c2cc(NC(=O)Nc3ccccc3)ccc2O1`: the relative growth is inactive: 1.01. To `COc1ccccc1-c1ccc2c(c1)O[C@H](CN(C)C(=O)c1cccnc1)[C@H](C)CN([C@H](C)CO)S2(=O)=O` belongs inactive: 0.999; to `C[C@H](CO)N1C[C@H](C)[C@H](CN(C)C(=O)Nc2ccc(C(F)(F)F)cc2)OCCCC[C@H](C)Oc2ccc(NC(=O)C3CCCCC3)cc2C1=O`, inactive: 0.986; to `CN(C)CCCNC(=O)C[C@@H]1CC[C@@H]2[C@H](COC[C@H](O)CN2C(=O)c2cc(Cl)cc(Cl)c2)O1`, inactive: 1.01. To `Cc1cc(C(=O)COC(=O)Cn2cnc3c2c(=O)n(C)c(=O)n3C)c(C)n1C` belongs inactive: 0.991.

Consider `Cc1noc(C)c1S(=O)(=O)Nc1ccc2c(c1)C(=O)N([C@@H](C)CO)C[C@@H](C)[C@@H](CN(C)Cc1ccc(C(F)(F)F)cc1)OCCCC[C@H](C)O2`, for which the relative growth was inactive: 1.08. The value for `C[C@@H]1CCCCO[C@@H](CN(C)Cc2ccc(C(F)(F)F)cc2)[C@H](C)CN([C@@H](C)CO)C(=O)c2cc(NC(=O)c3ccccc3)ccc2O1` was inactive: 0.965; that for `c1ccc(-c2ccnc(-c3cc(-c4ccccc4)ccn3)c2)cc1` was inactive: 0.99; that for `C[C@@H]1CN([C@@H](C)CO)C(=O)c2cc(NC(=O)C3CCCCC3)ccc2O[C@@H](C)CCCCO[C@@H]1CN(C)Cc1ccncc1` was inactive: 1.01.

Take `N#C/C(=C\c1ccc(O)c(O)c1)C(N)=O`: the relative growth was inactive: 0.982. In the case of `C[C@H](CO)N1C[C@H](C)[C@H](CN(C)C(=O)Nc2ccc3c(c2)OCCO3)OCc2cnnn2CCCC1=O`, the relative growth is inactive: 1.01.

Consider `CCOC(=O)C1=C(C)N[C@@]2(O)C[C@@H]1[C@H]1CO[C@@H]2O1`, for which the relative growth was inactive: 0.988.

In the case of `C[C@H](CO)N1C[C@H](C)[C@H](CN(C)S(C)(=O)=O)Oc2ccc(NC(=O)Cc3ccccc3)cc2CC1=O`, the relative growth was inactive: 1. The value for `COc1ccc(CN(C)C[C@@H]2Oc3ccc(NS(=O)(=O)c4c(C)noc4C)cc3C(=O)N([C@H](C)CO)C[C@H]2C)cc1` was inactive: 0.993; that for `COc1cccc(S(=O)(=O)Nc2ccc3c(c2)OC[C@@H](C)N(C(=O)Cc2cccnc2)C[C@H](C)[C@H](OC)CN(C)C3=O)c1` was inactive: 1.02. As to `CN(C)CCN1CCO[C@H]2CN(C(=O)N(C)C)C[C@@H]21`, the relative growth was inactive: 1.02. To `C[C@@H]1CN([C@@H](C)CO)C(=O)c2cc(NC(=O)Cc3ccccc3)ccc2O[C@H]1CN(C)S(=O)(=O)c1ccccc1` belongs inactive: 0.99; to `COc1ccccc1-c1cccc(-c2nc(C(=O)N3CCCCC3)cc3c2[C@H](CCO)N([S@@](=O)C(C)(C)C)C3)c1`, inactive: 1.02; to `C[C@@H]1CN([C@H](C)CO)C(=O)c2cccc(NC(=O)CCCCCC(=O)Nc3ccccc3N)c2O[C@@H]1CN(C)S(C)(=O)=O`, inactive: 0.989. The value for `C[C@@H]1CCCCO[C@H](CN(C)C(=O)CCC(F)(F)F)[C@@H](C)CN([C@H](C)CO)C(=O)c2cc(NC(=O)C3CCCCC3)ccc2O1` was inactive: 0.979; that for `CC(C)NC(=O)Nc1ccc2c(c1)CC(=O)N([C@@H](C)CO)C[C@H](C)[C@@H](CN(C)Cc1ccc(C(=O)O)cc1)O2` was inactive: 0.999; that for `C[C@@H]1CCCCO[C@@H](CN(C)S(=O)(=O)c2ccccc2)[C@H](C)CN([C@H](C)CO)C(=O)c2cc(NS(C)(=O)=O)ccc2O1` was inactive: 0.989. To `COc1ccc(S(=O)(=O)Nc2ccc3c(c2)C(=O)N([C@H](C)CO)C[C@H](C)[C@@H](CN(C)S(=O)(=O)c2cn(C)cn2)O3)cc1` belongs inactive: 1.01; to `COc1ccc(S(=O)(=O)N(C)C[C@@H]2Oc3ccc(NC(=O)Cc4ccccc4)cc3CC(=O)N([C@@H](C)CO)C[C@@H]2C)cc1`, inactive: 1.04. In the case of `C[C@@H](O)C#Cc1cnc2c(c1)C(=O)N([C@@H](C)CO)C[C@H](C)[C@@H](CN(C)C(=O)Nc1ccc(C(F)(F)F)cc1)O2`, the relative growth was inactive: 0.977. To `C[C@@H]1CN([C@@H](C)CO)C(=O)c2cc(NS(=O)(=O)c3ccccc3)ccc2O[C@@H](C)CCCCO[C@@H]1CN(C)C(=O)Nc1cccc2ccccc12` belongs inactive: 1.03. To `C[C@@H]1CN([C@H](C)CO)C(=O)c2cc(NC(=O)Nc3ccc(F)cc3)ccc2O[C@@H](C)CCCCO[C@@H]1CN(C)C(=O)C1CCCCC1` belongs inactive: 1.01; to `C[C@@H]1CCCCO[C@H](CN(C)C(=O)Nc2ccc(F)cc2)[C@H](C)CN([C@H](C)CO)C(=O)c2cc(NS(=O)(=O)c3ccc(F)cc3)ccc2O1`, inactive: 1.03; to `c1cc(CNCCN2CCOCC2)ccn1`, inactive: 0.993.

For `COc1ccc2c3c(n(c2c1)C)[C@@H](CO)N(C[C@]13CN(Cc2cccc(c2)F)C1)C(=O)C1CCOCC1`, the relative growth is inactive: 1.02. For the molecule `C[C@H](CO)N1C[C@H](C)[C@@H](CN(C)S(=O)(=O)c2ccc(Cl)cc2)Oc2c(NS(=O)(=O)c3cn(C)cn3)cccc2C1=O`, the relative growth was inactive: 1.

`Cc1ccc(S(=O)(=O)N(C)C[C@@H]2Oc3c(NC(=O)c4ccncc4)cccc3C(=O)N([C@H](C)CO)C[C@H]2C)cc1`: the relative growth is inactive: 0.983. Turning to `C[C@H](CO)N1C[C@H](C)[C@@H](CN(C)Cc2ccc(C(=O)Nc3ccccc3N)cc2)Oc2c(NC(=O)Nc3ccc(F)cc3)cccc2C1=O`, the relative growth is inactive: 1.01. The value for `CCS(=O)(=O)Nc1ccc2c(c1)C(=O)N(C)C[C@H](OC)[C@@H](C)CN(Cc1ccccn1)[C@H](C)CO2` was inactive: 1.04; that for `Cc1cc(C)nc(N2CC(=O)NC2=N)n1` was inactive: 0.965.

Consider `C[C@@H]1CN([C@H](C)CO)C(=O)Cc2cc(NC(=O)CCN3CCOCC3)ccc2O[C@H]1CN(C)S(=O)(=O)c1ccc(F)cc1`, for which the relative growth is inactive: 1. To `C[C@@H]1CN([C@H](C)CO)C(=O)Cc2cc(NC(=O)CCCCCC(=O)Nc3ccccc3N)ccc2O[C@H]1CN(C)Cc1ccc(Oc2ccccc2)cc1` belongs inactive: 0.981.

`C[C@H](CO)N1C[C@H](C)[C@@H](CN(C)S(=O)(=O)c2cn(C)cn2)Oc2ncc(C3=CCCC3)cc2C1=O`: the relative growth was inactive: 0.986.

With `COc1ccc2c3c(n(c2c1)C)[C@@H](CO)N(C[C@]13CCN(CC1)C(=O)c1ccncc1)C(=O)C1CCC1`, the relative growth is inactive: 1. The value for `CC(C)NC(=O)Nc1ccc2c(c1)C(=O)N([C@H](C)CO)C[C@@H](C)[C@H](CN(C)C(=O)Nc1ccc(C(F)(F)F)cc1)OCCCC[C@@H](C)O2` was inactive: 1.04; that for `COc1ccc(S(=O)(=O)N2C[C@H](O)COC[C@H]3O[C@H](CC(=O)NCc4ccc(Cl)c(Cl)c4)CC[C@@H]32)cc1` was inactive: 1.01.
